# Reference: PubChem BioAssay AID493208 (National Center for Advancing Translational Sciences (NCATS), 2011)
# Out of some 44,000 compounds screened, about 340 (0.77%) were called active. Roughly 5% stayed inconclusive and do not appear here. Calls follow the shape of the dose curve; as a rule, active = well fitted inhibition curve with a large enough effect; inconclusive = small, poorly fitted or top-dose-only effect; inactive = flat fitted curve, though single readings scatter. The list shows a part of the results.
# Assay: Acumen qHTS Assay for Inhibitors of the mTORC1 Signaling Pathway in MEF (Tsc2-/-, p53-/-) Cells: Sytravon; also: nearly all actives have a fitted effect of over 50% in size;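 as to activity change, negative = inhibition: plate controls were DMSO for no effect and rapamycin for full effect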
# Conditions: phospho-rpS6 immunofluorescence/PI, 24 h; series mostly up to 38.3 µM; activity change, negative = inhibition: at the top concentration
# How it was run: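 Readout is phospho-S6 Alexa 488 signal normalized to PI per well, reported as % active cells with thresholds set from rapamycin (7.5 nM) and DMSO controls. Cells: Tsc2-/-, p53-/- MEFs, 24 hrs compound at 37 C; PI cell number serves as viability.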
# Potency is read from the fitted curve at half-maximal effect.
Compound,"activity change, negative = inhibition",Potency
CCc1ccc(OCCSc2nc3ccccc3n2CC(=O)N2CCCCC2)cc1,inactive: 2.37%,
O=C(c1ccc(F)cc1)N1CCc2c([nH]c3ccccc23)C1c1ccc(Cl)cc1 (stereo not drawn),inactive: -8.22%,
COc1ccc(Cl)cc1NC(=O)N1CCN(S(=O)(=O)c2ccc3c(ccn3C)c2)CC1,inactive: -1.5%,
CC(C)(C)OC(=O)N1CCC(c2c(C(=O)NCc3cccs3)cnn2-c2cccc(F)c2)CC1,inactive: -14.6%,
COc1ccccc1N1CCN(c2ncnc3c2c(-c2ccccc2)cn3-c2cccc(Cl)c2)CC1,inactive: 5.28%,
Cc1ccc(OCCSc2nc(-c3ccccc3C)nc3cc(=O)[nH]n23)cc1Cl,inactive: -2.18%,
Cc1nn(-c2nc(-c3ccccc3)cc(C(F)(F)F)n2)c(C)c1Cl,inactive: 0.0123%,
CCc1nn(C(CC)C(=O)NCc2ccc(OC)c(OC)c2)c(=O)c2cc3oc(C)cc3n12 (stereo not drawn),inactive: -1.49%,
CCCCNC(=O)c1cccc(NC(=O)c2nsc3ccccc23)c1,inactive: 7.36%,
COc1ccc(S(=O)(=O)N2CCC(Oc3ccc(-n4cnnn4)cc3)CC2)cc1,inactive: -2.1%,
COc1cccc(OC)c1C(=O)NCCc1sc(-c2cccc(F)c2)nc1C,inactive: 8.82%,
CCOc1ccc2c(c1)c(=O)c(C(=O)c1ccc3c(c1)OCO3)cn2Cc1ccc(F)cc1,inactive: 1.01%,
CCc1ccc(C2C(C(=O)Nc3ccccc3OC)=C(C)Nc3c(C(=O)Nc4ccc(C)cc4)cnn32)cc1 (stereo not drawn),inactive: 3.58%,
CC(=O)Nc1ccc(NC(=O)c2nc(S(=O)(=O)Cc3ccc(F)cc3)ncc2Cl)cc1,,active: 5.21 µM
COc1cccc(CNC(=O)c2cnc3c(-c4ccc(F)cc4)c(C)nn3c2C)c1,inactive: 1.78%,
CCN(C(=O)c1cn(-c2cccc(OC)c2)c(=O)c2ccccc12)c1ccccc1C,inactive: 8.71%,
COc1ccc(C(=O)Nc2ccccc2-c2nc3ccccc3s2)cc1OC,inactive: -0.612%,
Cc1ccc(C)c(NC(=O)CSc2nccn2-c2cccc(C)c2C)c1,inactive: -1.86%,
Cc1ccc(-n2nc(C)c(C(=O)NCCCN3CCN(c4ccccc4F)CC3)c2-n2cccc2)cc1,inactive: -23%,
CCOC(=O)c1cnc2c(C)cc(C)cc2c1Nc1ccc(N2CCOCC2)cc1,inactive: -1.54%,
CCCOc1ccccc1C(=O)Nc1nc2c(s1)CCCC2,inactive: -1.63%,
CN(Cc1ccccc1)C(=O)c1ccc2c(c1)N(Cc1ccc(Cl)cc1)C(=O)c1ccccc1S2=O (stereo not drawn),inactive: -7.99%,
Cc1oc(-c2ccc(Cl)cc2)nc1CN1CCCC(C(=O)NCc2ccc(Cl)cc2)C1 (stereo not drawn),inactive: -8.42%,
Cc1nnc(N2CCC(C(=O)NCc3cccc(Cl)c3)CC2)c2nn(-c3ccccc3)c(C)c12,inactive: -4.45%,

Compound,"activity change, negative = inhibition",Potency
COc1cccc(NS(=O)(=O)c2ccc3[nH]cc(C(=O)N(C)Cc4ccco4)c(=O)c3c2)c1,inactive: 1.26%,
CC(C)c1ccc(NC(=O)CSC2=Nc3ccccc3C3=NC(CC(=O)NCc4ccco4)C(=O)N23)cc1 (stereo not drawn),inactive: 2.33%,
COc1ccc(NC(=O)c2ccc3c(=O)n4nc(Nc5ccccc5C)sc4nc3c2)cc1,inactive: -3.49%,
O=c1c2ccccc2n2c(-c3cccc(F)c3)nnc2n1Cc1ccccc1,inactive: 7.44%,
Cn1c(=O)c2c(c3ccccc31)OC(=O)CC2c1ccccc1 (stereo not drawn),inactive: 0.789%,
CCOC(=O)N1CCN(C(=O)c2cnn(-c3cccc(C)c3)c2-n2cccc2)CC1,inactive: -4.33%,
Cc1cccc(N2CCN(C(=O)c3c4c(nc5ccccc35)C(=O)N(C3CCCCC3)C4)CC2)c1C,inactive: -10.4%,
CN(C)c1ccc(-c2nc3ccccn3c2Nc2ccc3c(c2)OCCO3)cc1,inactive: -0.367%,
COc1ccc(OC)c(NC(=O)c2cc3c(=O)n4cccc(C)c4nc3n2C)c1,inactive: 6.63%,
Cc1ccc(N(C)C(=O)c2noc3c2CCCCC3)cc1C,inactive: 1.21%,
Cc1ccc(CC(=O)NCc2nc(-c3cccc(C)c3)no2)cc1,inactive: 4.28%,
Cc1cccc(C)c1OCc1cc(=O)n2ccsc2n1,inactive: -8.92%,
COc1cccc(NC(=O)CSc2nnc(NC(=O)NC3CCCCC3)s2)c1,inactive: -4.13%,
COc1cc(OC)c(NC(=O)C(C)n2nc(-c3ccc(C)c(C)c3)ccc2=O)cc1Cl (stereo not drawn),inactive: 0%,
Cc1ccc(NC(=O)N2CCc3c([nH]c4ccccc34)C2c2ccccc2F)c(Cl)c1 (stereo not drawn),inactive: -13.4%,
O=C(Cn1c(=O)c2sccc2n(CC(=O)Nc2ccc(Cl)cc2Cl)c1=O)NCCc1ccccc1,inactive: 5.14%,
COc1cccc(C(=O)c2cn(CC(=O)Nc3cccc(Cl)c3C)c3nc(C)ccc3c2=O)c1,inactive: -4.73%,
CSc1ncc(C(=O)NCc2cccc(Br)c2)c(-c2ccccc2)n1,inactive: -12.8%,
COCCN1C(=O)c2oc3ccc(C)cc3c(=O)c2C1c1ccc(C(=O)OC)cc1 (stereo not drawn),inactive: -2%,
COC(=O)c1c(NC(=O)CCCOc2ccccc2C)sc2c1CCC2,inactive: 7.44%,
COc1ccc(CNS(=O)(=O)c2ccc3c(c2)C(C)(C)C(=O)N3C)cc1OC,inactive: 9.27%,
O=C(NCc1ccccc1F)C(=O)NCC(c1ccco1)S(=O)(=O)c1ccccc1 (stereo not drawn),inactive: -2.49%,
Cc1ccc(C)c(NS(=O)(=O)c2ccc3c(c2)CCCN3C(=O)C2CCC2)c1,inactive: -2.45%,
Cc1ccc(C(C)C)c(OCC(=O)Nc2ccc(-c3nc4ncccc4o3)cc2C)c1,inactive: -9.16%,
